In a collection of fitness landscapes (doi:10.1126/science.1257360):
The list shows a part of the results.

B1: PhoQ; a variant is named by its letters at X, in order, P23837 (parent)
chain: MKKLLRLFFPLSLRVRFLLATAAVVLVLSLAYGMVALIGYSVSFDKTTFRLLRGESNLFYTLAKWENNKLHVELPENIDKQSPTMTLIYDENGQLLWAQRDVPWLMKMIQPDWLKSNGFHEIEADVNDTSLLLSGDHSIQQQLQEVREDDDDAEMTHSVAVNVYPATSRMPKLTIVVVDTIPVELKSSYMVWSWFIYVLSANLLLVIPLLWVAAWWSLRPIEALAKEVRELEEHNRELLNPATTRELTSLVRNLNRLLKSERERYDKYRTTLTDLTHSLKTPLXXLQXXLRSLRSEKMSVSDAEPVMLEQISRISQQIGYYLHRASMRGGTLLSRELHPVAPLLDNLTSALNKVYQRKGVNISLDISPEISFVGEQNDFVEVMGNVLDNACKYCLEFVEISARQTDEHLYIVVEDDGPGIPLSKREVIFDRGQRVDTLRPGQGVGLAVAREITEQYEGKIVAGESMLGGARMEVIFGRQHSAPKDE

Variants of: B1
Assay: enrichment ratio after two sorts for PhoP signalling (ratio (wild type AVST 3.29)); higher = more functional
Conditions: with PhoP (E. coli)

Variant | enrichment ratio
VGSY | ≤ 0.25
HCFR | ≤ 0.25
EVTG | ≤ 0.25
ADPI | ≤ 0.25
VREY | ≤ 0.25
LYRA | ≤ 0.25
RNGV | ≤ 0.25
RHRA | ≤ 0.25
WGNP | ≤ 0.25
PSYE | ≤ 0.25
MHNY | ≤ 0.25
GNSR | ≤ 0.25
MGIY | ≤ 0.25
KKTP | ≤ 0.25
AYTR | ≤ 0.25
KRKL | ≤ 0.25
DYMS | ≤ 0.25
PHLP | ≤ 0.25
TMRM | ≤ 0.25
NCRR | ≤ 0.25
NPYL | ≤ 0.25
VVMT | ≤ 0.25
VAKT | ≤ 0.25
DANW | ≤ 0.25
YTWG | ≤ 0.25

Variant | enrichment ratio
YQVG | ≤ 0.25
GKKR | ≤ 0.25
EPSK | ≤ 0.25
TRIG | ≤ 0.25
SPET | ≤ 0.25
NWGM | ≤ 0.25
SQCP | ≤ 0.25
MKQW | ≤ 0.25
KLPN | ≤ 0.25
RRTR | ≤ 0.25
STEG | ≤ 0.25
IKYA | ≤ 0.25
CVPI | ≤ 0.25
GRSI | ≤ 0.25
GPTS | ≤ 0.25
HPPG | ≤ 0.25
PYKQ | ≤ 0.25
TGFF | 0.829
DVRG | ≤ 0.25
GKAP | ≤ 0.25
NEAA | ≤ 0.25
DWSV | ≤ 0.25
RCQT | ≤ 0.25
NMCP | ≤ 0.25
LRLV | ≤ 0.25

Variant | enrichment ratio
MKMQ | ≤ 0.25
ATWS | ≤ 0.25
FYPE | ≤ 0.25
RDTT | ≤ 0.25
AVWN | ≤ 0.25
KHQF | ≤ 0.25
YDQD | ≤ 0.25
RCRY | ≤ 0.25
SKTN | 1.11
TQWQ | 5.92
FEFN | ≤ 0.25
TDRS | ≤ 0.25
DKEP | ≤ 0.25
NQLR | ≤ 0.25
MNEV | ≤ 0.25
NFGF | ≤ 0.25
LHNQ | ≤ 0.25
HVRI | ≤ 0.25
PVGM | ≤ 0.25
TPDI | ≤ 0.25
VLYQ | ≤ 0.25
LENE | ≤ 0.25
PRFH | ≤ 0.25
QKFR | ≤ 0.25
PDAK | ≤ 0.25

Variant | enrichment ratio
GLPW | ≤ 0.25
QGGH | ≤ 0.25
STRM | ≤ 0.25
IWSW | ≤ 0.25
KVAV | ≤ 0.25
GARP | ≤ 0.25
TAYT | 0.959
LVAL | ≤ 0.25
FSEC | ≤ 0.25
YVSV | ≤ 0.25
VLLG | ≤ 0.25
KIFV | ≤ 0.25
TPMS | ≤ 0.25
DNVE | ≤ 0.25
AQRN | ≤ 0.25
PQKY | ≤ 0.25
WGTS | ≤ 0.25
MDPD | ≤ 0.25
RETS | ≤ 0.25
MTAL | 5.98
TAFK | ≤ 0.25
SWCY | ≤ 0.25
PDPR | ≤ 0.25
KTDA | ≤ 0.25
MRFQ | ≤ 0.25

Variant | enrichment ratio
YIPN | ≤ 0.25
QVAW | ≤ 0.25
PEEQ | ≤ 0.25
KYST | ≤ 0.25
STAK | ≤ 0.25
DKSR | ≤ 0.25
LKRI | ≤ 0.25
IWCG | ≤ 0.25
SLMY | ≤ 0.25
HHLQ | ≤ 0.25
YQYQ | ≤ 0.25
PTRY | ≤ 0.25
HWKT | ≤ 0.25
WSQF | ≤ 0.25
YCDR | ≤ 0.25
MNIT | 4.55
NPRP | ≤ 0.25
FFYM | ≤ 0.25
RIRH | ≤ 0.25
WVLI | ≤ 0.25
QMNN | 12.1
AREC | ≤ 0.25
KARG | ≤ 0.25
TFPL | ≤ 0.25
EMNH | ≤ 0.25

Variant | enrichment ratio
WWHQ | ≤ 0.25
PNDE | ≤ 0.25
PLTR | ≤ 0.25
LRVW | ≤ 0.25
TNLL | 4.87
KTHK | ≤ 0.25
HLTF | ≤ 0.25
ITNA | ≤ 0.25
VSYT | ≤ 0.25
RDRT | ≤ 0.25
YFHK | ≤ 0.25
PHFD | ≤ 0.25
DVQC | ≤ 0.25
FMWD | ≤ 0.25
NKEK | ≤ 0.25
SYGA | ≤ 0.25
WKKY | ≤ 0.25
NPWP | ≤ 0.25
LGIS | ≤ 0.25
EQLF | ≤ 0.25
YGCN | ≤ 0.25
TRTD | ≤ 0.25
EHVS | ≤ 0.25
NFQR | ≤ 0.25
WCEK | ≤ 0.25

Variant | enrichment ratio
YPHE | ≤ 0.25
MAFL | 12.9
GMHY | ≤ 0.25
PNLE | ≤ 0.25
SGDD | ≤ 0.25
EPYS | ≤ 0.25
KKSL | ≤ 0.25
EAKS | ≤ 0.25
RMKT | ≤ 0.25
NWTK | ≤ 0.25
FPRN | ≤ 0.25
YCIR | ≤ 0.25
CSCT | ≤ 0.25
PQAA | ≤ 0.25
PSRP | ≤ 0.25
MKQV | ≤ 0.25
PVTA | ≤ 0.25
TKAM | 6.56
VGNK | ≤ 0.25
NANP | ≤ 0.25
QLDF | ≤ 0.25
ANHP | ≤ 0.25
EVAC | ≤ 0.25
VTDK | ≤ 0.25
QRSI | ≤ 0.25

Variant | enrichment ratio
MLQI | ≤ 0.25
FFPN | ≤ 0.25
PSEN | ≤ 0.25
VFIS | ≤ 0.25
RFLR | ≤ 0.25
ATKI | ≤ 0.25
PEVH | ≤ 0.25
YYTI | ≤ 0.25
PRDG | ≤ 0.25
GKLC | ≤ 0.25
FLSI | ≤ 0.25
YFQG | ≤ 0.25
NTYM | ≤ 0.25
VRDF | ≤ 0.25
LMVI | ≤ 0.25
LCVN | ≤ 0.25
AEPQ | ≤ 0.25
EHEY | ≤ 0.25
AIHI | ≤ 0.25
IYHL | ≤ 0.25
